Residue numbers refer to the chain shown, from its start. The list shows a part of the results.

The text below walks through data of PMC9911399, “Two distinct binding modes provide the RNA-binding protein RbFox with extraordinary sequence specificity”.

To fix the notation:
B1: GGACACU (DNA:RNA)
RNA: GGGAGACCGGAAUUCAGAUUGUCCGGACACUUUAAAUCCCGUCGUAGCCACCA
DNA 1: CAATCTGAATTCCGGTCTCCC
DNA 2: TGGTGGCTACGACGGGATT
B2: ACAUGAC (DNA:RNA)
RNA: B1 RNA with G25A, G26C, C28U, A29G, C30A, U31C
DNA 1: CAATCTGAATTCCGGTCTCCC
DNA 2: TGGTGGCTACGACGGGATT
B3: UUCAGCA (DNA:RNA)
RNA: B1 RNA with G25U, G26U, A27C, C28A, A29G, U31A
DNA 1: CAATCTGAATTCCGGTCTCCC
DNA 2: TGGTGGCTACGACGGGATT
B4: ACUGGGG (DNA:RNA)
RNA: GGGAGACCGGAAUUCAGAUUGUCCACUGGGGUUAAAUCCCGUCGUAGCCACCA
DNA 1: CAATCTGAATTCCGGTCTCCC
DNA 2: TGGTGGCTACGACGGGATT
B5: AAAUUAA (DNA:RNA)
RNA: B4 RNA with C26A, U27A, G28U, G29U, G30A, G31A
DNA 1: CAATCTGAATTCCGGTCTCCC
DNA 2: TGGTGGCTACGACGGGATT
B6: GGGCACA (DNA:RNA)
RNA: B1 RNA with A27G, U31A
DNA 1: CAATCTGAATTCCGGTCTCCC
DNA 2: TGGTGGCTACGACGGGATT
B7: ACUGGUU (DNA:RNA)
RNA: B4 RNA with G30U, G31U
DNA 1: CAATCTGAATTCCGGTCTCCC
DNA 2: TGGTGGCTACGACGGGATT
B8: CAAUUAU (DNA:RNA)
RNA: B1 RNA with G25C, G26A, C28U, A29U, C30A
DNA 1: CAATCTGAATTCCGGTCTCCC
DNA 2: TGGTGGCTACGACGGGATT
B9: ACAACUG (DNA:RNA)
RNA: B4 RNA with U27A, G28A, G29C, G30U
DNA 1: CAATCTGAATTCCGGTCTCCC
DNA 2: TGGTGGCTACGACGGGATT
B10: CUUUUGC (DNA:RNA)
RNA: B4 RNA with A25C, C26U, G28U, G29U, G31C
DNA 1: CAATCTGAATTCCGGTCTCCC
DNA 2: TGGTGGCTACGACGGGATT
B11: UAGGGCU (DNA:RNA)
RNA: B4 RNA with A25U, C26A, U27G, G30C, G31U
DNA 1: CAATCTGAATTCCGGTCTCCC
DNA 2: TGGTGGCTACGACGGGATT
B12: AGACGUG (DNA:RNA)
RNA: B4 RNA with C26G, U27A, G28C, G30U
DNA 1: CAATCTGAATTCCGGTCTCCC
DNA 2: TGGTGGCTACGACGGGATT
B13: GUUACCU (DNA:RNA)
RNA: B1 RNA with G26U, A27U, C28A, A29C
DNA 1: CAATCTGAATTCCGGTCTCCC
DNA 2: TGGTGGCTACGACGGGATT
B14: GUCAGGA (DNA:RNA)
RNA: B4 RNA with A25G, C26U, U27C, G28A, G31A
DNA 1: CAATCTGAATTCCGGTCTCCC
DNA 2: TGGTGGCTACGACGGGATT
B15: CUUCAGG (DNA:RNA)
RNA: B4 RNA with A25C, C26U, G28C, G29A
DNA 1: CAATCTGAATTCCGGTCTCCC
DNA 2: TGGTGGCTACGACGGGATT
B16: AUUAGAG (DNA:RNA)
RNA: B4 RNA with C26U, G28A, G30A
DNA 1: CAATCTGAATTCCGGTCTCCC
DNA 2: TGGTGGCTACGACGGGATT
B17: UCCUGCU (DNA:RNA)
RNA: B4 RNA with A25U, U27C, G28U, G30C, G31U
DNA 1: CAATCTGAATTCCGGTCTCCC
DNA 2: TGGTGGCTACGACGGGATT
B18: UGGAGCG (DNA:RNA)
RNA: B4 RNA with A25U, C26G, U27G, G28A, G30C
DNA 1: CAATCTGAATTCCGGTCTCCC
DNA 2: TGGTGGCTACGACGGGATT
B19: GGCUUCA (DNA:RNA)
RNA: B1 RNA with A27C, C28U, A29U, U31A
DNA 1: CAATCTGAATTCCGGTCTCCC
DNA 2: TGGTGGCTACGACGGGATT
B20: UGACGGG (DNA:RNA)
RNA: B4 RNA with A25U, C26G, U27A, G28C
DNA 1: CAATCTGAATTCCGGTCTCCC
DNA 2: TGGTGGCTACGACGGGATT

The assay has as its target T1, RBFOX1 RRM (Homo sapiens, UniProt Q9NWB1 109-208).
T1 sequence: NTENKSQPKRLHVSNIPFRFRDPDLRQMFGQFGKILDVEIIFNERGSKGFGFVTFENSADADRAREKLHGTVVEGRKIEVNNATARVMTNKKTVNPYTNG
Briefly: EMSA; HiTS-Eq, 1 nM pool, 10 min; buffer printed only for the single-RNA assays: 10 mM Tris pH 7.5, 150 mM NaCl, 3.4 mM EDTA, 0.001% NP-40, 30 C. To be noted: tags: His6 N-terminal (pET28a); label: 5' 32P. The method in brief:
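These values rest on relative association constants, computed from read-count changes of each RNA species versus the control reaction and normalised to the cognate motif. Reads came from free RNA recovered by 8% native PAGE after purified RbFox RRM (wild type or mutant) at increasing concentrations was equilibrated for 10 min in 50 µL with 1 nM of a 5′-radiolabelled pool with 7 randomized nucleotides and DNA-annealed flanks.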
On the technique in general: A gel shift assay detects complexes by their altered migration in electrophoresis.
With B1, the binding signal is 0.0158 KA relative to UGCAUGU. Regarding B2, the binding signal was 0.00505 KA relative to UGCAUGU. B3: the binding signal was 0.015 KA relative to UGCAUGU. As for B4, the binding signal was 0.0129 KA relative to UGCAUGU.

For B5, the binding signal is 0.00133 KA relative to UGCAUGU. On to B6, for which the binding signal is 0.00969 KA relative to UGCAUGU. As to B7, the binding signal was 0.0137 KA relative to UGCAUGU. The same measure for B8: 0.000161 KA relative to UGCAUGU. Consider B9, for which the binding signal is 0.00252 KA relative to UGCAUGU. Consider B10, for which the binding signal was 0.0212 KA relative to UGCAUGU. The same measure for B11: 0.00738 KA relative to UGCAUGU; for B12: 0.0104 KA relative to UGCAUGU; for B13: 0.00787 KA relative to UGCAUGU. Turning to B14, the binding signal was 0.00085 KA relative to UGCAUGU. B15: the binding signal was 0.00919 KA relative to UGCAUGU.

For the molecule B16, the binding signal is 0.00722 KA relative to UGCAUGU. The same measure for B17: 0.0144 KA relative to UGCAUGU; for B18: 0.0271 KA relative to UGCAUGU; for B19: 0.00605 KA relative to UGCAUGU. For the molecule B20, the binding signal is 0.0111 KA relative to UGCAUGU.
